# Data as given in PubChem BioAssay AID588591 (National Center for Advancing Translational Sciences (NCATS), 2011).
# The campaign covered roughly 390,000 compounds. About 4,700 (1.2%) were called active. Inconclusive means that the source gave no clear call. Such entries were picked first, then a sample of the others. Calls come from the whole dose curve; as a rule, active = well fitted inhibition curve with a large enough effect; inconclusive = small, poorly fitted or top-dose-only effect, or another doubt; inactive = no such curve, though single readings can be large or run the other way. Potencies of inconclusive entries are doubtful fits and often do not repeat.
# Target: DNA polymerase eta (Homo sapiens) (UniProt Q9Y253)
# Sequence of UniProt Q9Y253 (Q9Y253 whole entry, looked up): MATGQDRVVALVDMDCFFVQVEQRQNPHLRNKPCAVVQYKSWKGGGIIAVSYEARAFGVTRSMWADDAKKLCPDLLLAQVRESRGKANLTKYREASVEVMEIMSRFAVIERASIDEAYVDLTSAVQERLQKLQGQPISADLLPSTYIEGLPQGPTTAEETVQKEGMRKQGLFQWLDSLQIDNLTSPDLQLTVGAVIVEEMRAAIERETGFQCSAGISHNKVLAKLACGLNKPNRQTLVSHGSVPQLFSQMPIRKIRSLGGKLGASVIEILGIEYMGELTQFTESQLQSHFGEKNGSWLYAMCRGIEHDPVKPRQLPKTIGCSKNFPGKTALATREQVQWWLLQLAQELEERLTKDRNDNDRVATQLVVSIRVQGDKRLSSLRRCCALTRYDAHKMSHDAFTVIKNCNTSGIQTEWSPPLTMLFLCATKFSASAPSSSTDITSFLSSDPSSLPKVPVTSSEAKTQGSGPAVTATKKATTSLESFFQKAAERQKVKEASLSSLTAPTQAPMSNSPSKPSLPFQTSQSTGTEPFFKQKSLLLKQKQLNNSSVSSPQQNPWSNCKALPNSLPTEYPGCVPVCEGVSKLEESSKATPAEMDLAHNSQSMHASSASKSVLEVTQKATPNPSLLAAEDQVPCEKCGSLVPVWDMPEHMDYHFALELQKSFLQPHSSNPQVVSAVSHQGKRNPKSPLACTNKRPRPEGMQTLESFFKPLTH
# Test: qHTS for Inhibitors of Polymerase Eta
# Details: recombinant Pol eta, fluorescent DNA replication assay; series mostly up to 114 µM
# Summary of the method: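 Fluorescent replication assay: 50 nM final substrate added after a 15 min room-temperature compound preincubation with 10 nM enzyme. Signal taken at 0 min and again at 10 min.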
# Potency is the fitted concentration of half-maximal effect; tags give direction and shape of the fitted curve.
row,SMILES,Potency
1,CCCCNC(=O)c1ccc2c(c1)NC(=O)C(CS(=O)(=O)Cc1cccc(C)c1)N2 (centres undefined),"inconclusive: 89.1 µM [inhibitor, single point]"
2,O=C(c1ccco1)n1nc(-c2ccccc2)nc1NCc1ccc(F)cc1,"inconclusive: 89.1 µM [inhibitor, single point]"
3,Cc1cc(C)n2nc(C(=O)OCC(=O)c3cc(C)n(C)c3C)nc2n1,active: 14.1 µM
4,O=Cc1cn(CC(=O)N2CCCc3ccccc32)c2ccccc12,inactive
5,Cc1ccc(C)c(N2CCN(S(=O)(=O)c3ccc4[nH]c(=O)ccc4c3)CC2)c1,"inconclusive: 39.8 µM [inhibitor, partial curve, poor fit]"
6,Cc1ccc(S(=O)(=O)C2(C(=O)NCc3ccccc3Cl)CC2)cc1,"inconclusive: 89.1 µM [inhibitor, partial curve, poor fit]"
7,CSc1nc(SCC(N)=O)c2c3c(sc2n1)CN(C)CC3,"inconclusive: 22.4 µM [inhibitor, partial curve]"
8,Cc1ccc(N2CCN(S(=O)(=O)c3nnc(NC(=O)c4ccco4)s3)CC2)cc1,active: 79.4 µM
9,CCOC(=O)c1cc(CC)sc1NC(=O)COc1ccc2c(C)cc(=O)oc2c1,"inconclusive: 3.55 µM [inhibitor, full curve, poor fit]"
10,Cc1ccc(-c2nc3c4ccccc4[nH]c(=O)n3n2)cc1,"inconclusive: 89.1 µM [inhibitor, single point]"
11,CCOc1ccc(C(=O)N/N=C/c2ccc(-c3ccc(S(=O)(=O)Nc4ncccn4)cc3)o2)cc1,active: 22.4 µM
12,O=C(O)CP(=O)(O)O,inactive
13,COC(=O)CCC(=O)OC1(C)C(=O)C2=COC(c3ccc(OC)cc3)=CC2=C(Br)C1=O (centres undefined),active: 10 µM
14,COc1ccc(CCN2CC(C(=O)NCc3ccco3)CC2=O)cc1OC (centres undefined),"inconclusive: 28.2 µM [inhibitor, single point]"
15,COc1ccc(S(=O)(=O)N2CCCCC2)cc1C(C)C,"inconclusive: 89.1 µM [inhibitor, partial curve, poor fit]"
16,Cc1nnc(Sc2cc(C(=O)NCc3ccco3)c3ccccc3n2)s1,"inconclusive: 28.2 µM [inhibitor, partial curve]"
17,Cc1ccc(-n2c(C)cc(/C=N/NC(=O)CC3(C)OCCO3)c2C)c(C)c1,inactive
18,COC(=O)c1ccccc1NC(=O)c1ccc2nccnc2c1,active: 31.6 µM
19,Cc1ccc(NC(=O)/C(=C\c2ccco2)NC(=O)c2ccco2)cc1,inactive
20,CCc1cccc(-n2c(C)nc3c(cnn3-c3ccc(C)c(C)c3)c2=O)c1,"inconclusive: 79.4 µM [inhibitor, partial curve, poor fit]"
21,CCOc1ccccc1CNC(=O)c1cc2n(n1)CCCN(Cc1ccc(C)cc1)C2=O,inactive
22,O=C(NC1CCCCC1)N(c1ccccc1)c1nnc(-c2cccc([N+](=O)[O-])c2)s1,"inconclusive: 79.4 µM [inhibitor, partial curve, poor fit]"

row,SMILES,Potency
1,O=[N+]([O-])c1ccc(NN=Cc2cc(Br)ccc2O)nc1,"inconclusive: 22.4 µM [inhibitor, partial curve, poor fit]"
2,COc1ccc(C(=O)/C=C/c2cc(C(=O)O)cc3c2OCOC3)c(O)c1,active: 50.1 µM
3,Brc1cccc(-c2nc(-c3ccncc3)no2)c1,"inconclusive: 44.7 µM [inhibitor, partial curve, poor fit]"
4,COc1ccc(-c2csc3nc(-c4cccnc4)nc(N4CCC(C(N)=O)CC4)c23)cc1OC,"inconclusive: 17.8 µM [inhibitor, partial curve, poor fit]"
5,O=c1oc2cc(O)ccc2cc1-c1nc2c(s1)CCc1ccccc1-2,"inconclusive: 35.5 µM [inhibitor, single point]"
6,N#C/C(=C/c1ccc(N2CCCC2)c([N+](=O)[O-])c1)c1nc2ccccc2[nH]1,"inconclusive: 7.94 µM [inhibitor, full curve, poor fit]"
7,Cc1cc(C(=O)CSc2nnc(-c3ccco3)o2)c(C)n1Cc1ccco1,"inconclusive: 17.8 µM [inhibitor, full curve, poor fit]"
8,O=c1oc(-c2ccccc2)nc2ccsc12,"inconclusive: 14.1 µM [inhibitor, partial curve, poor fit]"
9,COc1cccc(/C=C2\Oc3cc(OCC(=O)N4Cc5ccccc5C[C@H]4C(=O)O)ccc3C2=O)c1,active: 50.1 µM
10,Cn1ccc2cc3c(cc21)CCN3C(=O)Nc1cccnc1,"inconclusive: 89.1 µM [inhibitor, partial curve, poor fit]"
11,O=C(c1ccc(CS(=O)(=O)c2ccccc2)o1)N1CCN(c2ccccc2)CC1,active: 50.1 µM
12,COc1cccc(/C=N/Nc2ncnc3c2ncn3Cc2ccccc2)c1O,"inconclusive: 12.6 µM [inhibitor, partial curve, poor fit]"
13,Nc1ccc2nc(-c3cccc(-c4nc5ccc(N)cc5[nH]4)n3)[nH]c2c1,active: 20 µM
14,CCc1nnc(NC(=O)CSc2nc3c(c(=O)n2-c2ccccc2OC)SCC3)s1,"inconclusive: 35.5 µM [inhibitor, single point]"
15,CC1C(=O)CCCCCCCCCC2C1(N1CCOCC1)CS2(=O)=O (centres undefined),"inconclusive: 25.1 µM [inhibitor, partial curve, poor fit]"
16,Nc1ccc2c3c(cccc13)C(=O)NC2=O,"inconclusive: 17.8 µM [inhibitor, single point]"
17,CC1CCN(S(=O)(=O)c2ccc3c(c2)CCN3)CC1,inactive
18,CCCCN1CC(O)=C(c2nc(-c3ccc(Cl)cc3)cs2)C1=N,"inconclusive: 11.2 µM [inhibitor, partial curve]"
19,O=C(O)CC(c1ccccc1)n1cccc1 (centres undefined),inactive
20,O=C(Nc1ccc2c(c1)oc1ccccc12)c1ccc(Br)o1,"inconclusive: 17.8 µM [inhibitor, partial curve]"
21,Cc1c(C(=O)Nc2nc(-c3ccc(F)cc3)ns2)oc2ccc(Cl)cc12,inactive
22,CN(C)S(=O)(=O)c1cccc(COc2cccnc2[N+](=O)[O-])c1,"inconclusive: 89.1 µM [inhibitor, partial curve, poor fit]"
